From patent US5440016A, “Peptides of the formula (KFmoc) ZZZ and their uses” (priority 1993, dated 1995)
≈ marks a conversion by molar mass, not a printed value. Where two headings read alike, the source gives them in different places. Part of at least one peptide drawing is inferred or uncertain, most often the ends. Square brackets hold non-standard residues; d marks the D form. Peptide text beside a SMILES is read from it. * marks the point of attachment. Phe(4-NO2) = N[C@@H](Cc1ccc([N+](=O)[O-])cc1)C(=O)O; Fmoc = O=C(OCC1c2ccccc2-c2ccccc21)*; Orn = NCCC[C@H](N)C(=O)O; Aib = CC(C)(N)C(=O)O; Ahx = NCCCCCC(=O)O; GABA = NCCCC(=O)O; Acm = CC(=O)NC*

Experiments:
[1] = system: Streptococcus sanguis ATCC 10556
[2] = system: Staphylococcus aureus ATCC 29213
[3] = system: Escherichia coli ATCC 25922
[4] = system: Candida albicans ATCC 10231; settings: Tables 14-17
[5] = Tables 2-5, concentration necessary to inhibit 50% growth
[6] = Tables 11-13, lower parts (unnatural amino acids)
[7] = Tables 7-9, lower parts (unnatural amino acids)
[8] = Tables 3-5, lower parts (unnatural amino acids)

| SMILES | IC50 against S. sanguis ([1]; Tables 10-13) | IC50 against S. aureus ([2]; Tables 6-9) | IC50 against E. coli [3, 5] | further results |
| --- | --- | --- | --- | --- |
| NCCCC[C@H](NC(=O)OCC1c2ccccc2-c2ccccc21)C(=O)N[C@@H](Cc1c[nH]c2ccccc12)C(=O)N[C@H](Cc1ccccc1)C(=O)N[C@@H](CS)C(N)=O [(KFmoc)WfC-NH2] (Fmoc-KW[dF]C-NH2) | 31 µg/mL (≈ 38.6 µM) | 22 µg/mL (≈ 27.4 µM) | 86 µg/mL (≈ 107 µM) | IC50 against S. sanguis ([1]; Tables 10-13, listed as (KFmoc)Wfc-NH2): 20 µg/mL (≈ 24.9 µM); IC50 against S. aureus ([2]; Tables 6-9, listed as (KFmoc)Wfc-NH2): 18 µg/mL (≈ 22.4 µM) |
| NCCCC[C@H](NC(=O)OCC1c2ccccc2-c2ccccc21)C(=O)N[C@@H](Cc1c[nH]c2ccccc12)C(=O)N[C@H](Cc1ccccc1)C(=O)N[C@@H](Cc1ccccc1)C(N)=O [(KFmoc)WfF-NH2] (Fmoc-KW[dF]F-NH2) | 20 µg/mL (≈ 23.6 µM) | 21 µg/mL (≈ 24.8 µM) | 21 µg/mL (≈ 24.8 µM) | IC50 against S. sanguis ([1]; Tables 10-13, listed as (KFmoc)Wff-NH2): 5 µg/mL (≈ 5.9 µM); IC50 against S. aureus ([2]; Tables 6-9, listed as (KFmoc)Wff-NH2): 5 µg/mL (≈ 5.9 µM) |
| NCCCC[C@H](NC(=O)[C@H](CCCCN)NC(=O)[C@H](Cc1c[nH]c2ccccc12)NC(=O)[C@H](CCCCN)NC(=O)OCC1c2ccccc2-c2ccccc21)C(N)=O [(KFmoc)WKK-NH2] (Fmoc-KWKK-NH2) | 5 µg/mL (≈ 6.17 µM) | 5 µg/mL (≈ 6.17 µM) | – | IC50 against C. albicans [4]: 191 µg/mL (≈ 236 µM) |
| CC(C)[C@H](NC(=O)[C@@H](Cc1ccccc1)NC(=O)[C@H](Cc1c[nH]c2ccccc12)NC(=O)[C@H](CCCCN)NC(=O)OCC1c2ccccc2-c2ccccc21)C(N)=O [(KFmoc)WfV-NH2] (Fmoc-KW[dF]V-NH2) | 16 µg/mL (≈ 20 µM) | 13 µg/mL (≈ 16.3 µM) | 73 µg/mL (≈ 91.3 µM) | IC50 against S. sanguis ([1]; Tables 10-13, listed as (KFmoc)Wfv-NH2): 7 µg/mL (≈ 8.75 µM); IC50 against S. aureus ([2]; Tables 6-9, listed as (KFmoc)Wfv-NH2): 6 µg/mL (≈ 7.5 µM) |
| NCCCC[C@H](NC(=O)OCC1c2ccccc2-c2ccccc21)C(=O)N[C@@H](Cc1c[nH]c2ccccc12)C(=O)N[C@@H](CCCCN)C(=O)N[C@@H](Cc1c[nH]cn1)C(N)=O [(KFmoc)WKH-NH2] (Fmoc-KWKH-NH2) | 6 µg/mL (≈ 7.33 µM) | 8 µg/mL (≈ 9.77 µM) | – | IC50 against C. albicans [4]: 221 µg/mL (≈ 270 µM) |
| NCCCC[C@H](NC(=O)OCC1c2ccccc2-c2ccccc21)C(=O)N[C@@H](Cc1c[nH]c2ccccc12)C(=O)N[C@@H](Cc1ccc(O)cc1)C(=O)N[C@@H](CO)C(N)=O [(KFmoc)WYS-NH2] (Fmoc-KWYS-NH2) | 9 µg/mL (≈ 11.2 µM) | 11 µg/mL (≈ 13.7 µM) | 94 µg/mL (≈ 117 µM) | – |
| NCCCC[C@H](NC(=O)OCC1c2ccccc2-c2ccccc21)C(=O)N[C@@H](Cc1c[nH]c2ccccc12)C(=O)N[C@H](Cc1ccccc1)C(=O)NCCCC(N)=O [(KFmoc)Wf(gABA)-NH2] (Fmoc-KW[dF][GABA]-NH2) | – | – | – | IC50 against S. sanguis [1, 6]: 9 μg/m; IC50 against S. aureus [2, 7]: 11 μg/m; IC50 against E. coli [3, 8]: 65 μg/m |
| C[C@@H](O)[C@H](NC(=O)[C@@H](Cc1ccccc1)NC(=O)[C@H](Cc1c[nH]c2ccccc12)NC(=O)[C@H](CCCCN)NC(=O)OCC1c2ccccc2-c2ccccc21)C(N)=O [(KFmoc)WfT-NH2] (Fmoc-KW[dF]T-NH2) | 24 µg/mL (≈ 29.9 µM) | 9 µg/mL (≈ 11.2 µM) | 51 µg/mL (≈ 63.6 µM) | IC50 against S. sanguis ([1]; Tables 10-13, listed as (KFmoc)Wft-NH2): 7 µg/mL (≈ 8.73 µM); IC50 against S. aureus ([2]; Tables 6-9, listed as (KFmoc)Wft-NH2): 7 µg/mL (≈ 8.73 µM) |
| NCCCC[C@H](NC(=O)OCC1c2ccccc2-c2ccccc21)C(=O)N[C@@H](Cc1c[nH]c2ccccc12)C(=O)N[C@@H](CCCCN)C(=O)N[C@@H](CC(N)=O)C(N)=O [(KFmoc)WKN-NH2] (Fmoc-KWKN-NH2) | 8 µg/mL (≈ 10.1 µM) | 9 µg/mL (≈ 11.3 µM) | – | IC50 against C. albicans [4]: 323 µg/mL (≈ 406 µM) |
| CC(C)(NC(=O)[C@H](Cc1ccc(O)cc1)NC(=O)[C@H](Cc1c[nH]c2ccccc12)NC(=O)[C@H](CCCCN)NC(=O)OCC1c2ccccc2-c2ccccc21)C(N)=O [(KFmoc)WY(aAIB)-NH2] (Fmoc-KWY[Aib]-NH2) | – | – | – | IC50 against S. sanguis [1, 6]: 8 μg/m; IC50 against S. aureus [2, 7]: 10 μg/m; IC50 against E. coli [3, 8]: 92 μg/m |
| NCCCC[C@H](NC(=O)OCC1c2ccccc2-c2ccccc21)C(=O)N[C@@H](Cc1c[nH]c2ccccc12)C(=O)N[C@@H](Cc1ccc(O)cc1)C(=O)N[C@@H](CS)C(N)=O [(KFmoc)WYC-NH2] (Fmoc-KWYC-NH2) | 20 µg/mL (≈ 24.4 µM) | 15 µg/mL (≈ 18.3 µM) | – | IC50 against C. albicans [4]: 159 µg/mL (≈ 194 µM) |
| NCCCC[C@H](NC(=O)OCC1c2ccccc2-c2ccccc21)C(=O)N[C@@H](Cc1c[nH]c2ccccc12)C(=O)N[C@@H](Cc1ccc(O)cc1)C(=O)N[C@@H](Cc1ccccc1)C(N)=O [(KFmoc)WYF-NH2] (Fmoc-KWYF-NH2) | 21 µg/mL (≈ 24.3 µM) | 17 µg/mL (≈ 19.7 µM) | 116 µg/mL (≈ 134 µM) | IC50 against S. sanguis ([1]; Tables 10-13, listed as (KFmoc)WYf-NH2): 13 µg/mL (≈ 15 µM); IC50 against S. aureus ([2]; Tables 6-9, listed as (KFmoc)WYf-NH2): 12 µg/mL (≈ 13.9 µM) |
| NCCCC[C@H](NC(=O)OCC1c2ccccc2-c2ccccc21)C(=O)N[C@@H](Cc1c[nH]c2ccccc12)C(=O)N[C@H](Cc1ccccc1)C(=O)N[C@H](CCC(N)=O)C(N)=O [(KFmoc)Wfq-NH2] (Fmoc-KW[dF][dQ]-NH2) | 15 µg/mL (≈ 18.1 µM) | 10 µg/mL (≈ 12.1 µM) | 76 µg/mL (≈ 91.7 µM) | – |
| NCCCC[C@H](NC(=O)OCC1c2ccccc2-c2ccccc21)C(=O)N[C@@H](Cc1c[nH]c2ccccc12)C(=O)N[C@@H](CCCCN)C(=O)NCCCCCC(N)=O [(KFmoc)WK(eAca)-NH2] (Fmoc-KWK[Ahx]-NH2) | 31 µg/mL (≈ 39 µM) | 40 µg/mL (≈ 50.3 µM) | – | IC50 against C. albicans [4]: 328 µg/mL (≈ 413 µM) |
| CC[C@@H](C)[C@@H](NC(=O)[C@@H](CS)NC(=O)[C@H](CCCCN)NC(=O)OCC1c2ccccc2-c2ccccc21)C(=O)N[C@@H](C)C(N)=O [(KFmoc)ciA-NH2] (Fmoc-K[dC][dI]A-NH2) | 16 µg/mL (≈ 24.4 µM) | 9 µg/mL (≈ 13.7 µM) | 50 µg/mL (≈ 76.4 µM) | – |
| CC(C)C[C@H](NC(=O)[C@H](Cc1ccc(O)cc1)NC(=O)[C@H](Cc1c[nH]c2ccccc12)NC(=O)[C@H](CCCCN)NC(=O)OCC1c2ccccc2-c2ccccc21)C(N)=O [(KFmoc)WYL-NH2] (Fmoc-KWYL-NH2) | 8 µg/mL (≈ 9.64 µM) | 7 µg/mL (≈ 8.43 µM) | 123 µg/mL (≈ 148 µM) | IC50 against S. aureus ([2]; Tables 6-9, listed as (KFmoc)WY1-NH2): 8 µg/mL (≈ 9.64 µM) |
| NCCCC[C@H](NC(=O)OCC1c2ccccc2-c2ccccc21)C(=O)N[C@@H](Cc1c[nH]c2ccccc12)C(=O)N[C@@H](CCCCN)C(=O)N[C@@H](CCCN)C(N)=O [(KFmoc)WK(Orn)-NH2] (Fmoc-KWK[Orn]-NH2) | 5 µg/mL (≈ 6.28 µM) | 5 µg/mL (≈ 6.28 µM) | 100 µg/mL (≈ 126 µM) | – |
| CC(=O)NCSC[C@H](NC(=O)[C@H](Cc1ccc(O)cc1)NC(=O)[C@H](Cc1c[nH]c2ccccc12)NC(=O)[C@H](CCCCN)NC(=O)OCC1c2ccccc2-c2ccccc21)C(N)=O [(KFmoc)WY(Cys[ACM])-NH2] (Fmoc-KWYC(Acm)-NH2) | – | – | – | IC50 against S. sanguis [1, 6]: 28 μg/m; IC50 against S. aureus [2, 7]: 23 μg/m |
| C[C@H](NC(=O)[C@H](Cc1ccc(O)cc1)NC(=O)[C@H](Cc1c[nH]c2ccccc12)NC(=O)[C@H](CCCCN)NC(=O)OCC1c2ccccc2-c2ccccc21)C(N)=O [(KFmoc)WYA-NH2] (Fmoc-KWYA-NH2) | 12 µg/mL (≈ 15.2 µM) | 10 µg/mL (≈ 12.7 µM) | – | IC50 against C. albicans [4]: 120 µg/mL (≈ 152 µM) |
| NCCCC[C@H](NC(=O)OCC1c2ccccc2-c2ccccc21)C(=O)N[C@@H](Cc1c[nH]c2ccccc12)C(=O)N[C@H](Cc1ccccc1)C(=O)N[C@@H](CO)C(N)=O [(KFmoc)WfS-NH2] (Fmoc-KW[dF]S-NH2) | 21 µg/mL (≈ 26.7 µM) | 13 µg/mL (≈ 16.5 µM) | – | IC50 against S. sanguis ([1]; Tables 10-13, listed as (KFmoc)Wfs-NH2): 8 µg/mL (≈ 10.2 µM); IC50 against S. aureus ([2]; Tables 6-9, listed as (KFmoc)Wfs-NH2): 9 µg/mL (≈ 11.4 µM) |
| CC[C@H](C)[C@H](NC(=O)[C@@H](Cc1ccccc1)NC(=O)[C@H](Cc1c[nH]c2ccccc12)NC(=O)[C@H](CCCCN)NC(=O)OCC1c2ccccc2-c2ccccc21)C(N)=O [(KFmoc)WfI-NH2] (Fmoc-KW[dF]I-NH2) | 15 µg/mL (≈ 18.4 µM) | 26 µg/mL (≈ 31.9 µM) | – | – |
| NCCCC[C@H](NC(=O)OCC1c2ccccc2-c2ccccc21)C(=O)N[C@@H](Cc1c[nH]c2ccccc12)C(=O)N[C@H](Cc1ccccc1)C(=O)N[C@@H](Cc1ccc([N+](=O)[O-])cc1)C(N)=O [(KFmoc)Wf(NO2 F)-NH2] (Fmoc-KW[dF][Phe(4-NO2)]-NH2) | – | – | – | IC50 against S. sanguis [1, 6]: 11 μg/m; IC50 against S. aureus [2, 7]: 10 μg/m; IC50 against E. coli [3, 8]: 88 μg/m |
| CSCC[C@H](NC(=O)[C@@H](Cc1ccccc1)NC(=O)[C@H](Cc1c[nH]c2ccccc12)NC(=O)[C@H](CCCCN)NC(=O)OCC1c2ccccc2-c2ccccc21)C(N)=O [(KFmoc)WfM-NH2] (Fmoc-KW[dF]M-NH2) | 19 µg/mL (≈ 22.8 µM) | 18 µg/mL (≈ 21.6 µM) | 35 µg/mL (≈ 42.1 µM) | IC50 against S. sanguis ([1]; Tables 10-13, listed as (KFmoc)Wfm-NH2): 9 µg/mL (≈ 10.8 µM); IC50 against S. aureus ([2]; Tables 6-9, listed as (KFmoc)Wfm-NH2): 5 µg/mL (≈ 6.01 µM) |
| NCCCC[C@H](NC(=O)OCC1c2ccccc2-c2ccccc21)C(=O)N[C@@H](Cc1c[nH]c2ccccc12)C(=O)N[C@@H](Cc1ccc(O)cc1)C(=O)NCCCC(N)=O [(KFmoc)WY(gABA)-NH2] (Fmoc-KWY[GABA]-NH2) | – | – | – | IC50 against S. sanguis [1, 6]: 27 μg/m; IC50 against S. aureus [2, 7]: 35 μg/m |
| CC[C@H](C)[C@H](NC(=O)[C@H](Cc1ccc(O)cc1)NC(=O)[C@H](Cc1c[nH]c2ccccc12)NC(=O)[C@H](CCCCN)NC(=O)OCC1c2ccccc2-c2ccccc21)C(N)=O [(KFmoc)WYI-NH2] (Fmoc-KWYI-NH2) | 53 µg/mL (≈ 63.9 µM) | 15 µg/mL (≈ 18.1 µM) | – | IC50 against S. sanguis ([1]; Tables 10-13, listed as (KFmoc)WYi-NH2): 12 µg/mL (≈ 14.5 µM); IC50 against S. aureus ([2]; Tables 6-9, listed as (KFmoc)WYi-NH2): 12 µg/mL (≈ 14.5 µM) |
